{"source": "PubChem BioAssay AID686978", "about": "(National Center for Advancing Translational Sciences (NCATS), 2013)", "note": "Values joined by “and” are separate entries in the source; they are usually repeats but may differ in a detail not shown here. Identical values can stand only once. The whole screen tested about 420,000 compounds, of which about 64,000 (15%) were called active. This list was built around the results that the source calls inconclusive (neither active nor inactive); the mix of calls is not that of the screen. The call rests on the fitted dose curve; in most records, active means well fitted inhibition curve with a large enough effect; inconclusive means small, poorly fitted or top-dose-only effect; inactive means flat fitted curve, though single readings scatter. Potencies beside an inconclusive call are fits to weak or partial responses and may not hold up. On the % scale 0 is the no-effect control and ±100 the full control effect; potency means the concentration at half of the fitted maximal effect; tags describe the fitted curve by direction and shape."}
{"experiment": "qHTS for Inhibitors of human tyrosyl-DNA phosphodiesterase 1 (TDP1): qHTS in cells in absence of CPT; further: nearly all actives have a fitted effect of over 55% in size", "conditions": "DT40 Tdp1-/- hTDP1 cells, no CPT, ATP luminescence, 48 h; activity change, negative = growth inhibition: at 46.2 µM (top of the series) unless noted", "in_short": "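Chicken DT40 Tdp1-/- cells complemented with human TDP1, screened without camptothecin (DMSO vehicle only), 400 cells/well. Compounds pin-transferred, cells incubated at 37 °C for at least 48 hr. Growth read as ATP-dependent luminescence (CellTiter-Glo, 30 min at RT).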"}
{"smiles": "NC(Cc1ccccc1)c1csc(Nc2ccc(C(=O)NCCO)cc2)n1", "note": "(stereo not given)", "Potency": "inconclusive: 16.4 µM [inhibitor, partial curve]"}
{"smiles": "O=C(O)c1ccc2cc[nH]c2c1", "Potency": "inactive"}
{"smiles": "COc1ccc(NC(=O)c2cc(-c3ccc(F)cc3OC)n[nH]2)c(C)c1", "Potency": "inconclusive: 20.6 µM [inhibitor, single point]"}
{"smiles": "COC(=O)[C@@H]1C[C@@]2(O)[C@@H](O)[C@@H](O)[C@@H](O)C[C@H]2N1CC(c1ccccc1)c1ccccc1", "Potency": "inactive"}
{"smiles": "CN(C(=O)c1cc2c(=O)n3ccccc3nc2s1)C1CCCCC1", "Potency": "inconclusive: 20.6 µM [inhibitor, single point]"}
{"smiles": "COc1ccc(NC(=O)C2Cc3c(-c4ccncc4)ccnc3O2)cc1OC", "note": "(stereo not given)", "Potency": "inconclusive: 20.6 µM [inhibitor, single point]"}
{"smiles": "O=S(=O)(c1cccs1)N1CCc2ccccc21", "Potency": "inconclusive: 29.1 µM [inhibitor, single point]"}
{"smiles": "O=C(Nc1ccc2c(c1)OCCO2)C(c1cc2ccccc2o1)N1CCC(Cc2ccccc2)CC1", "note": "(stereo not given)", "Potency": "inconclusive: 29.1 µM [inhibitor, single point]"}
{"smiles": "O=C(N[C@@H](Cc1ccccc1)C(=O)NCCc1c[nH]c2ccccc12)c1ccco1", "Potency": "inconclusive: 23.1 µM [inhibitor, partial curve]"}
{"smiles": "COc1ccc2c(c1)-c1nc(NC(=O)c3cccc(Br)c3)sc1CC2", "Potency": "inconclusive: 23.1 µM [inhibitor, single point]"}
{"smiles": "Cc1ccc2oc(C(=O)NCc3ncc(C)[nH]3)c(C)c2c1", "Potency": "inconclusive: 25.9 µM [inhibitor, single point]"}
{"smiles": "Cc1ccc(Nc2c3c(nc4nncn24)CCC3)c(C)c1", "Potency": "inconclusive: 18.4 µM [inhibitor, single point]"}
{"smiles": "Cc1ccc(NC(=O)CN2C(=O)c3cccnc3Sc3ccccc32)c(Br)c1", "Potency": "inconclusive: 18.4 µM [inhibitor, partial curve]"}
{"smiles": "COc1ccc(Cl)cc1N/C(N)=N/c1nc(CSc2ccc(C)cc2)cc(=O)[nH]1", "Potency": "inconclusive: 35.5 µM [inhibitor, single point]"}
{"smiles": "CC1CCN(S(=O)(=O)c2cc(C(=O)N3CCN(c4cccc(Cl)c4)CC3)n(C)c2)CC1", "Potency": "active: 18.4 µM"}
{"smiles": "COC(=O)C(C)NC(=O)C1CCCN1S(=O)(=O)c1cc(C)c(Cl)cc1C", "note": "(stereo not given)", "Potency": "inconclusive: 29.1 µM [inhibitor, single point]"}
{"smiles": "O=C(Cn1ncc2c3ccccc3n(Cc3ccccc3F)c2c1=O)NCC1CCCO1", "note": "(stereo not given)", "Potency": "inconclusive: 29.1 µM [inhibitor, single point]"}
{"smiles": "Cc1sc2ncnc(SCC(=O)N3c4ccccc4Sc4ccc(Cl)cc43)c2c1C", "Potency": "inconclusive: 16.4 µM [inhibitor, single point]"}
{"smiles": "CCN(CC)C(=O)c1cn(-c2ccccc2)nc1-c1ccc2c(c1)OCCO2", "Potency": "inconclusive: 23.1 µM [inhibitor, single point]"}
{"smiles": "Oc1ccc(/C=N/n2c(COc3ccccc3)n[nH]c2=S)cc1O", "Potency": "inconclusive: 25.9 µM [inhibitor, single point]"}
{"smiles": "O=C(C[C@H]1C(=O)N(c2ccccc2)C[C@@H]1Cc1ccccc1)Nc1ccccc1", "Potency": "inactive and inconclusive: 17.8 µM [inhibitor, single point]"}
{"smiles": "C[n+]1c(/C=C/c2ccnc3ccccc23)cc(/C=C/c2ccnc3ccccc23)c2ccccc21", "Potency": "active: 2.51 µM"}
{"smiles": "CCn1nnnc1Sc1nc(C)nc2scc(-c3ccccc3)c12", "Potency": "active: 8.91 µM"}
{"smiles": "COc1ccc(S(=O)(=O)N2CCN(CC(=O)c3ccc(O)c(O)c3)CC2)cc1", "Potency": "inconclusive: 23.1 µM [inhibitor, single point]"}
{"smiles": "O=C(C1COc2ccccc2O1)N(Cc1cccnc1)c1nc2c(F)cccc2s1", "note": "(stereo not given)", "Potency": "inactive"}
{"smiles": "CCN(C(=O)CN1C(=O)NC2(CCCC2)C1=O)c1nc2c(C)cccc2s1", "Potency": "active: 13 µM"}
{"smiles": "Cc1cc(N2CCN(C(C(=O)NC3CCCC3)c3ccc(F)cc3)CC2)c2ccccc2n1", "note": "(stereo not given)", "Potency": "inconclusive: 25.9 µM [inhibitor, single point]"}
{"smiles": "COc1ccc(C(=O)N2CCC(C(=O)Nc3ccc(C)cc3)CC2)cc1", "Potency": "active: 10.3 µM"}
{"smiles": "O=C(CSc1nnc2sc3ccccc3n12)NCc1ccco1", "Potency": "active: 12.6 µM"}
{"smiles": "Cc1ccc(C2CC(=O)c3cnc(NC(=O)c4ccco4)nc3C2)cc1", "note": "(stereo not given)", "Potency": "inconclusive: 25.9 µM [inhibitor, partial curve]"}
{"smiles": "Cc1ccc2cc(CNC[C@H]3O[C@@H](n4cc(C)c(=O)[nH]c4=O)C[C@@H]3O)c(N3CCOCC3)nc2c1", "Potency": "inactive"}
{"smiles": "O=C(CN1C(=O)NC2(CCCc3ccccc32)C1=O)NCc1ccc(Cl)cc1Cl", "note": "(stereo not given)", "Potency": "inconclusive: 29.1 µM [inhibitor, single point]"}
{"smiles": "COc1ccc(N(CC(=O)N2CCc3ccccc3C2)S(=O)(=O)c2ccccc2)cc1", "Potency": "active: 18.4 µM"}
{"smiles": "Cc1cccc(-c2cc3nc(C)cc(NCCCN(C)C)n3n2)c1", "Potency": "inconclusive: 29.1 µM [inhibitor, single point]"}
{"smiles": "CC(=O)N1CCN(c2ccc(NC(=O)C(c3ccccc3)c3ccccc3)cc2)CC1", "Potency": "inactive"}
{"smiles": "COc1ccc(Nc2ncnc3c2cnn3Cc2ccc(C)cc2)cc1", "Potency": "inconclusive: 29.1 µM [inhibitor, single point]"}
{"smiles": "COc1ccc2cc3cc(C(=O)N(C)C4CCCCC4)oc3nc2c1", "Potency": "inconclusive: 20.6 µM [inhibitor, single point]"}
{"smiles": "O=C(NCC1CC1)C1Cc2c(-c3cccc(F)c3)ccnc2O1", "note": "(stereo not given)", "Potency": "inconclusive: 23.1 µM [inhibitor, single point]"}
{"smiles": "COc1ccc(N2CCN(C(=O)CNS(=O)(=O)c3ccc(C)cc3)CC2)cc1", "Potency": "inactive"}
{"smiles": "CCOc1ccc(S(=O)(=O)c2cn(CC)c3ccc(F)cc3c2=O)cc1", "Potency": "inconclusive: 18.4 µM [inhibitor, single point]"}
{"smiles": "COc1ccccc1C1C(C(=O)N2CCCCC2)=C(C)Nc2nc3ccccc3n21", "note": "(stereo not given)", "Potency": "inactive"}
{"smiles": "CCOC(=O)c1nnn(C(CC)C(=O)Nc2ccc(F)cc2)c1C(=O)OCC", "note": "(stereo not given)", "Potency": "inactive"}
{"smiles": "COc1ccc2cc3cc(C(=O)NCCCN4CCC(C)CC4)oc3nc2c1", "Potency": "active: 2.59 µM"}
{"smiles": "CCN(CC)CCCNC(=O)c1cc(-c2ccc(Cl)c(Cl)c2)on1", "Potency": "active: 23.1 µM"}
{"smiles": "Cc1onc(-c2ccccc2Cl)c1C(=O)OCC(=O)N1CCC(C)CC1", "Potency": "inconclusive: 29.1 µM [inhibitor, single point]"}
{"smiles": "CCOC(=O)Cn1c(=O)c2c(nc3n2CCCCN3c2ccc(OCC)cc2)n(C)c1=O", "Potency": "inconclusive: 20.6 µM [inhibitor, single point]"}
{"smiles": "CCOC(=O)c1ccc(NC(=S)NCCc2ccccc2F)cc1", "Potency": "active: 23.1 µM"}
{"smiles": "c1ccc(-n2cnc3cc(NCc4ccncc4)ccc32)cc1", "Potency": "inconclusive: 29.1 µM [inhibitor, single point]"}
{"smiles": "Cc1cc(C)c(OCC(=O)N2CC=C(c3ccccc3)CC2)c(C)c1", "Potency": "inactive"}
{"smiles": "CCOc1ccc(N2CC(O)=C(c3ccccc3)C2=N)cc1", "activity change, negative = growth inhibition": "inconclusive: -30.2% [inhibitor]"}
{"smiles": "O=C(Nc1ccc(F)cc1)Nc1cccnc1Cl", "Potency": "inconclusive: 23.1 µM [inhibitor, single point]"}
{"smiles": "CCN1C(=O)[C@H]2[C@@H](c3ccc(C(F)(F)F)cc3)N[C@]3(CCCN(Cc4ccc(C)cc4)C3=O)[C@H]2C1=O", "Potency": "active: 16.4 µM"}
{"smiles": "COc1ccc(-c2cnc3c(NC=O)cc(-c4ccccc4)cn23)cc1OC", "Potency": "active: 0.92 µM"}
{"smiles": "COC(=O)C1=CN(c2ccc(N3CCOCC3)cc2)C(N)=C(C#N)C1c1ccccc1", "note": "(stereo not given)", "Potency": "active: 18.4 µM"}
{"smiles": "Cc1ccc(S(=O)(=O)N2Cc3ccccc3CC2C(N)=O)cc1", "note": "(stereo not given)", "Potency": "inactive"}
{"smiles": "N=c1c2c(-c3ccccc3)c(-c3ccccc3)n(Cc3ccco3)c2ncn1CCN1CCOCC1", "Potency": "inconclusive: 18.4 µM [inhibitor, single point]"}
{"smiles": "CCNC(=S)Nc1cc(OC)c(NC(=O)c2ccco2)cc1OC", "Potency": "inactive"}
{"smiles": "O=c1[nH]c(N/N=C\\c2ccc3c(c2)OCO3)nc2ccccc12", "Potency": "active: 23.1 µM"}
{"smiles": "COc1cccc2sc3ccc(C#Cc4ccc(N)cc4)cc3c(=O)c12", "Potency": "inconclusive: 20.6 µM [inhibitor, single point]"}
{"smiles": "Cc1ccc(CNC(=O)c2ccc(Cn3c(SCc4ccc(F)cc4)nc4cccnc43)cc2)o1", "Potency": "inconclusive: 16.4 µM [inhibitor, single point]"}
{"smiles": "CCNC(=O)CSc1nc2ccccc2c(=O)n1CCCOC(C)C", "Potency": "inactive"}
{"smiles": "COc1cccc(C(NC(C)=O)c2nc(-c3ccc(N(C)C)cc3)cs2)c1", "note": "(stereo not given)", "Potency": "inconclusive: 20.6 µM [inhibitor, single point]"}
{"smiles": "Cc1ccc(C(=O)Cn2c(NCCO)nc3ccccc32)cc1", "Potency": "inconclusive: 29.1 µM [inhibitor, single point]"}
{"smiles": "CSCC[C@H](NC(=O)OC(C)(C)C)C(=O)N/N=C/c1cc2ccc(C)cc2nc1Cl", "Potency": "inconclusive: 25.9 µM [inhibitor, single point]"}
{"smiles": "COCC(=O)N[C@@H]1c2ccccc2CC[C@@H]1OCc1ccccc1", "Potency": "inactive"}
{"smiles": "CCc1cccc(NC(=O)CSc2nnc(-c3cc4occc4n3C)n2-c2ccccc2C)c1", "Potency": "inconclusive: 25.9 µM [inhibitor, single point]"}
{"smiles": "O=C(c1ccc(F)cc1)N1CCCC(C(=O)N2CCCCC2)C1", "note": "(stereo not given)", "Potency": "inactive"}
{"smiles": "O=C1Nc2ccccc2/C1=C/c1ccccc1Cl", "Potency": "inconclusive: 29.1 µM [inhibitor, single point]"}
{"smiles": "COc1cccc(S(=O)(=O)N(C)C[C@@H]2OCc3cn(nn3)CCCC(=O)N([C@@H](C)CO)C[C@H]2C)c1", "Potency": "inactive"}
{"smiles": "COc1ccc(Nc2c(-c3ccc(OC)cc3)nc3cnccn23)cc1", "Potency": "inconclusive: 25.9 µM [inhibitor, single point]"}
